Hit rate of the full screen: of about 410,000 compounds, about 530 (0.13%) were called active. Inconclusive results, whose numbers are uncertain, are shown with a selection of clear calls. Calls follow the shape of the dose curve; as a rule, active = well fitted inhibition curve with a large enough effect; inconclusive = small, poorly fitted or top-dose-only effect, or another doubt; inactive = no such curve, though single readings can be large or run the other way. Potencies of inconclusive entries are doubtful fits and often do not repeat.
Experiment: qHTS of GLP-1 Receptor Inverse Agonists: Cytotox Screen
Conditions: HEK293 cAMP-luciferase reporter cells, luminescence, 24 h; activity change, negative = inhibition: at 38.3 µM (top of the series) unless noted
How it was run: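 Seeding density was 200 cells/uL; after overnight-length (12 h) culture, 23 nL compounds went on for 24 h at 37 °C. Readout used a luciferase detection reagent, luminescence taken after 12 min at room temperature.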
For `COc1ccc2oc(C(=O)Nc3nnc(C)s3)c(C)c2c1`, the “activity change, negative = inhibition” value was inactive: -14.2%.
For `COc1ccc(NC(=O)c2cc3c(=O)n(Cc4cccnc4)ccc3nc2C)c(OC)c1`, the “activity change, negative = inhibition” value was inactive: -1.14%.
For `S=c1[nH]ccc2ccccc12`, the Potency was inconclusive: 12.6 µM [inhibitor, single point].
For `CN(C1CCCCC1)S(=O)(=O)c1cccc(C#N)c1`, the Potency was inconclusive: 28.2 µM [inhibitor, single point].
For `CN1CCN(CC(O)COC(c2ccc(Cl)cc2)c2ccc(Cl)cc2)CC1` (stereo not drawn), the “activity change, negative = inhibition” value was inactive: -28.5%.
With `O=C(Nc1ccc2c(c1)OCO2)c1cncc(Br)c1` the “activity change, negative = inhibition” value was inactive: 5.58%.
In the case of `COc1ccc(NC(=S)N(CCCN2CCCC2)Cc2cccn2Cc2ccc(Cl)cc2)cc1Cl`, the Potency is reported as inconclusive: 12.6 µM [inhibitor, single point].
For `COc1ccc(C(=O)NC(=S)NC2CCCCC2)cc1`, the Potency was inconclusive: 7.94 µM [inhibitor, partial curve].
For `COCCn1nnnc1C(c1ccc(OC)c(OC)c1)N1CCN(c2nc3ccccc3s2)CC1` (stereo not drawn), the Potency was inconclusive: 28.2 µM [inhibitor, single point].
With `C/C(=N\NC(=O)CSCc1ccccc1Cl)c1cc(O)ccc1O` the Potency was inconclusive: 3.98 µM [inhibitor, full curve].
With `CC(C)c1ccc(NC(=O)[C@H](NC(=O)[C@@H]2Cc3ccccc3CN2)c2ccccc2)cc1` the Potency was inconclusive: 28.2 µM [inhibitor, single point].
In the case of `O=C(NC1CCCCCC1)c1ccc(CS(=O)c2cccc(Cl)c2)o1` (stereo not drawn), the “activity change, negative = inhibition” value is reported as inactive: 13.2%.
For `O=C(CCc1c[nH]c2ccccc12)NCCc1ccccc1`, the Potency was inconclusive: 3.16 µM [inhibitor, partial curve, poor fit].
With `COC(=O)c1scc(C#N)c1N/N=C(\C#N)S(=O)(=O)c1ccc(Cl)cc1` the Potency was inconclusive: 28.2 µM [inhibitor, single point].
In the case of `COc1ccc(N(CC(=O)NCc2ccc3c(c2)OCO3)S(=O)(=O)c2ccc(O)c(C(=O)O)c2)cc1`, the Potency is reported as inconclusive: 10 µM [inhibitor, partial curve].
In the case of `O=C(C[C@@H]1C/C=C\C[C@H](Cc2ccc(F)cc2)C(=O)OC[C@@H]2CCCN2C1=O)N[C@H](CO)Cc1ccccc1`, the “activity change, negative = inhibition” value is reported as inactive: -4.46%.
In the case of `Cn1cccc1C(=O)NC(=O)COC(=O)c1ccc(S(C)(=O)=O)c([N+](=O)[O-])c1`, the Potency is reported as inconclusive: 10 µM [inhibitor, single point].
In the case of `N[C@@H](Cc1ccc(O)c(O)c1)C(=O)O`, the “activity change, negative = inhibition” value is reported as inactive: -2.29%.
For `CCc1ccc(NC(=O)Cn2c(=O)n(CCc3ccccc3)c(=O)c3sc4ccccc4c32)cc1`, the “activity change, negative = inhibition” value was inactive: 1.78%.
In the case of `Cc1cc(C(=O)CCl)c(C)n1CCc1ccccc1`, the Potency is reported as inconclusive: 10 µM [inhibitor, single point].
With `O=C(NC(=S)N1CCOCC1)c1cn(-c2ccccc2)nc1-c1ccc(F)cc1` the Potency was inconclusive: 7.94 µM [inhibitor, partial curve, poor fit].
In the case of `COc1ccc(/C=N/NC(=O)c2cc3c(OC)ccc(OC)c3[nH]2)cc1O`, the Potency is reported as inconclusive: 5.62 µM [inhibitor, partial curve, poor fit].
For `Cc1ccc(-c2ccc(C(=O)NCc3ccc(Cl)cc3)o2)c2ccccc12`, the “activity change, negative = inhibition” value was inactive: -15.8%.
In the case of `CCOC(=O)N1CCN(Cc2nc(N)nc(Nc3ccc(Oc4ccccc4)cc3)n2)CC1`, the Potency is reported as inconclusive: 22.4 µM [inhibitor, single point].
With `Cc1ccc(C(=O)N/N=C\c2cc(Br)c(Br)o2)cn1` the Potency was inconclusive: 28.2 µM [inhibitor, single point].
In the case of `CCc1ccc2occ(CC(=O)Nc3ccc(C)c(C)c3)c2c1`, the “activity change, negative = inhibition” value is reported as inactive: 11.5%.
With `Cc1ccc(NC(=O)CCC(=O)c2cccs2)c(O)c1` the “activity change, negative = inhibition” value was inactive: 4.65%.
In the case of `O=c1c2nncn2ccn1-c1ccc(F)c(F)c1`, the “activity change, negative = inhibition” value is reported as inactive: -0.987%.
In the case of `Cc1cc2nccnc2cc1C`, the Potency is reported as inconclusive: 28.2 µM [inhibitor, single point].
For `COc1ccc(C(=O)NC(=S)Nc2ccc(N3CCOCC3)c(Cl)c2)cc1[N+](=O)[O-]`, the Potency was inconclusive: 10 µM [inhibitor, partial curve, poor fit].
For `Cc1ccc(Cl)cc1Nc1nn2c(=O)c3ccc(C(=O)NC4CCCCC4)cc3nc2s1`, the “activity change, negative = inhibition” value was inactive: -1.07%.
With `CC(C)N1C(=O)/C(=C/c2nc3ccccc3c(=O)n2-c2ccccc2)c2ccccc21` the Potency was inconclusive: 28.2 µM [inhibitor, single point].
In the case of `Cc1ccc(C(=O)OC(C)CN2CCN(C)CC2)cc1` (stereo not drawn), the Potency is reported as inconclusive: 7.94 µM [inhibitor, partial curve, poor fit].
In the case of `Cc1ccc(C2=NN(C(=O)CCl)C(c3cccs3)C2)o1` (stereo not drawn), the Potency is reported as inconclusive: 12.6 µM [inhibitor, single point].
For `CCCC1=NN(C(=O)C(=O)Nc2ccc(Br)cc2)C(O)(C(F)(F)F)C1` (stereo not drawn), the Potency was inconclusive: 10 µM [inhibitor, partial curve, poor fit].
For `O=C(N/N=C/c1ccc([N+](=O)[O-])s1)c1ccncc1`, the Potency was inconclusive: 20 µM [inhibitor, single point].
With `O=C(NC1CCCC1)c1cc(COc2ccc3ncccc3c2)on1` the “activity change, negative = inhibition” value was inactive: -2.1%.
In the case of `CCOC(=O)c1ccc(NC(=S)N2CCSC2c2ccc(Cl)cc2)cc1` (stereo not drawn), the Potency is reported as inconclusive: 11.2 µM [inhibitor, single point].
In the case of `COC(=O)[C@@H]1[C@@H](C#N)C2(c3ccccc3-c3ccccc32)N(c2ccc(Cl)cc2)N1C#N`, the Potency is reported as inconclusive: 20 µM [inhibitor, single point].
In the case of `O=C1NC[C@H](CC2CCCCC2)N(CCc2cccc3ccccc23)C1=O`, the “activity change, negative = inhibition” value is reported as inactive: 6.45%.
In the case of `Cc1oc2c(CN3CCOCC3)c(O)ccc2c(=O)c1-c1ccc(Cl)cc1`, the “activity change, negative = inhibition” value is reported as inactive: -19.9%.
In the case of `O=C(Nc1cccc(-c2cccc(Cl)c2)c1)C1CCN(Cc2ccc(CO)o2)CC1`, the Potency is reported as inconclusive: 28.2 µM [inhibitor, single point].
For `CNc1sc(C(=O)c2cccs2)c(N)c1-c1nc2ccccc2s1`, the Potency was inconclusive: 2.51 µM [inhibitor, full curve, poor fit].
For `CN1CCN(Cc2ccc(-c3ccc(Cl)cc3)o2)CC1`, the “activity change, negative = inhibition” value was inactive: -7.53%.
In the case of `O=C(OCc1c(F)cccc1Cl)c1cccnc1Cl`, the Potency is reported as inconclusive: 28.2 µM [inhibitor, single point].
With `COc1cc(OC)cc(N2C(=O)CC(N3CCC(C(=O)N4CCCCC4)CC3)C2=O)c1` (stereo not drawn) the “activity change, negative = inhibition” value was inactive: 20%.
In the case of `CCCCNCCOCCOc1ccccc1-c1ccccc1`, the Potency is reported as inconclusive: 10 µM [inhibitor, single point].
For `O=c1c2ccccc2nc2ccc(NCc3cccs3)nn12`, the “activity change, negative = inhibition” value was inactive: -15.3%.
With `CN(CC(=O)Nc1cccc(F)c1)C(=O)CCNC(=O)c1ccco1` the “activity change, negative = inhibition” value was inactive: -14.5%.
With `O=C(Cc1ccc(Cl)cc1)Nc1ccc(-c2cc3ccccc3oc2=O)c(Cl)c1` the Potency was inconclusive: 10 µM [inhibitor, partial curve, poor fit].
With `CC1CCN(C(=S)NC(=O)c2cccs2)CC1` the Potency was inconclusive: 2.82 µM [inhibitor, partial curve].
With `CC(C)c1cccc(C(C)C)c1NC(=S)Nc1cccc(Cl)c1` the Potency was inconclusive: 28.2 µM [inhibitor, single point].
In the case of `COc1ccc(NC(=O)CN2CCN(CC(=O)Nc3ccccc3Cl)CC2)cc1Cl`, the “activity change, negative = inhibition” value is reported as inactive: 10.1%.
In the case of `O=C(Cc1ccccc1)N/N=C/c1ccc2c(c1)OCO2`, the “activity change, negative = inhibition” value is reported as inactive: 15.4%.
With `Cc1ccc(NC(=O)C2CCCN2S(=O)(=O)c2ccc3nc(-c4ccccc4)[nH]c3c2)cc1C` (stereo not drawn) the “activity change, negative = inhibition” value was inactive: -29.4%.
With `S=C(NCc1ccc(Cl)cc1Cl)Nc1ccccc1` the Potency was inconclusive: 20 µM [inhibitor, single point].
For `Cc1ccc(C(=O)N/C(=C\c2ccc(-c3ccc(Cl)cc3)o2)C(=O)NCCCN(C)C)cc1`, the Potency was inconclusive: 5.01 µM [inhibitor, full curve, poor fit].
In the case of `O=C(CSc1nnc(-c2c[nH]c3ccccc23)n1-c1ccc(F)cc1)NCc1ccco1`, the Potency is reported as inconclusive: 31.6 µM [inhibitor, single point].
For `CC(=O)Nc1ccc(C(=O)OCc2ccccc2Br)cc1`, the “activity change, negative = inhibition” value was inactive: -4.28%.
For `Cc1nc(C(=O)NNC(=O)c2ccccc2Cl)c(C(F)(F)F)o1`, the “activity change, negative = inhibition” value was inactive: 23.4%.
For `FC(F)Oc1ccc(NC(=S)NCc2ccccc2)cc1Cl`, the Potency was inconclusive: 20 µM [inhibitor, single point].
With `CCOc1cccc(/C=N/NC(=O)c2cc(-c3cccn3C)n[nH]2)c1O` the Potency was inconclusive: 10 µM [inhibitor, single point].
In the case of `O=C1C2CCCN2C(=O)N1CCCN1CCN(c2cccc(Cl)c2)CC1` (stereo not drawn), the “activity change, negative = inhibition” value is reported as inactive: -5.86%.
With `CC(C)(C)c1ccc(C(=O)NNC(=S)NCc2ccco2)cc1` the “activity change, negative = inhibition” value was inactive: 1.15%.
For `C/C(Cn1nnc([N+](=O)[O-])n1)=N\NC(=O)c1ccc(C)cc1`, the Potency was inconclusive: 28.2 µM [inhibitor, single point].
For `CCOC(=O)c1c(Nc2cccc(C)c2)nnc(-c2ccccc2)c1-c1ccccc1`, the “activity change, negative = inhibition” value was inactive: -6.68%.
In the case of `O=C(N/N=C\c1cc(Br)cs1)c1ccncc1`, the Potency is reported as inconclusive: 12.6 µM [inhibitor, single point].
For `COc1ccc(OCC(CO)N2CCN(c3ccccc3)CC2)cc1` (stereo not drawn), the Potency was inconclusive: 28.2 µM [inhibitor, single point].
In the case of `COc1ccc(NC(=O)COC(=O)c2cc([N+](=O)[O-])ccc2N2CCOCC2)cc1`, the Potency is reported as inconclusive: 11.2 µM [inhibitor, single point].
For `COc1ccccc1NS(=O)(=O)c1cc(NC(=O)c2ccc(Cl)nc2)ccc1Cl`, the Potency was inconclusive: 28.2 µM [inhibitor, single point].
With `COc1ccc(C(C#N)=C2C=CC(=NO)C(C)=C2Cl)cc1` the Potency was inconclusive: 28.2 µM [inhibitor, single point].
For `COc1cccc(CNC(=O)CSc2n[nH]c(-c3ccccc3Cl)n2)c1`, the “activity change, negative = inhibition” value was inactive: -10.7%.
With `O=C(O)/C=C/C(=O)NNc1ccc([N+](=O)[O-])cc1` the Potency was inconclusive: 25.1 µM [inhibitor, single point].
% is scaled to controls: 0 for no effect and ±100 for the full control effect; potency is read from the fitted curve at half-maximal effect.
